Paper PMC12136788
This is one part of the list.

T1: UNK ZnF1-3 (human, UniProt Q9C0B0 31-174)
T1 sequence: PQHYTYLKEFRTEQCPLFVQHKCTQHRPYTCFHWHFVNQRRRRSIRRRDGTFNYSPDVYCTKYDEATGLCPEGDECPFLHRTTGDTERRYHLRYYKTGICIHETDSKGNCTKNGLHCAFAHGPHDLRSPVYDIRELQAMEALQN

B1: chrX:77160730:77160731:+_ENSG00000131174_ENST00000481445|hu_hu|FALSE|FALSE (ssRNA)
RNA: GGGAGUUCUACAGUCCGACGAUCUUACUGAUUCCUCCAUUCCUUUGGGGUAACUCUGCCAACAGGGGACAGGUUCCAUUCUAUUCCGACUUGUGUUGCUACAUAUGUCCAUGUAACAAUACAGAAAGUGGCUCCACUAGCUAACAACAGAGGAUUGAGCAUCA
B2: chr10:60562040:60562041:-_ENSMUSG00000020097_ENSMUST00000092498|mus_mus|motif|central (ssRNA)
RNA: GGGAGUUCUACAGUCCGACGAUCCCUGUGAUGAACCAGCUGGUAACACCUGGGGUCAGAACAGUGCUGAAGACCACUUCCGGAGGAGGGUGAGGAAGAGCCUGGUGGUCUGGCUCUCCCAGCGAGCAAUGCCCAGGCUGAAUACAACAGAGGAUUGAGCAUCA
B3: chr1:220276048:220276049:+_ENSG00000067704_ENST00000302637|hu_hu|hu_hu_hu_mus_True|8_18 (ssRNA)
RNA: GGGAGUUCUACAGUCCGACGAUCGCAAAUUGCCUGGUUGGCGGGAAUUGUCCAAGGCUGGGUGGUCCAAACUAAAACGCUAACAGGGGAUGAGGCAUCUGUAAGAGACUCCAACUUUGGAGAAGGCUUUAAGAGAGGGAAUCUCAACAGAGGAUUGAGCAUCA
B4: chr18:77179482:77179483:+_ENSMUSG00000090000_ENSMUST00000026487|mus_mus|motif|central (ssRNA)
RNA: GGGAGUUCUACAGUCCGACGAUCAAGUAUGCUCCAAUCCGGGAGUGCUCCUGCCUCUGAUAAUCUGAUCUACAAGUGCAACGGCAAUUAAAAAAAAAAAAAAAUCAGAUAGAUAGAAACUCUGGUUUUAUUGUCAACUUUACUCAACAGAGGAUUGAGCAUCA
B5: chr22:19452774:19452775:-_ENSG00000070010_ENST00000399523|hu_hu|hu_hu_hu_mus_False|1_38 (ssRNA)
RNA: GGGAGUUCUACAGUCCGACGAUCCUUCUCAUUGUAGUUGAUAGCAAUCACAUCUCCAGUCGUCAGACAGGCGAAGUUUCUCAAUGCAUUUUCUAAUACGGCUUUGGGGUUGGUAAUAUCCAGGAAGUCUGGGCUCUGAGGUUGCAACAGAGGAUUGAGCAUCA
B6: 165880688_165880808_2178_3pUTR_ENSMUSG00000027678_ENSMUST00000088095|mouse|control|control (ssRNA)
RNA: GGGAGUUCUACAGUCCGACGAUCUUCUCUUGCAACAGAGACCCAUGCACAUUGGAGGUGGAAGACACUGUCCCUGAUGUUGAGGAGGACACUCCAGAGGGGCUGGUGACACUAACGGAAGAGUCUUUGCAGUUUGGAUCCAGGCAACAGAGGAUUGAGCAUCA
B7: 80010050_80019531_730_3pUTR_ENSMUSG00000022024_ENSMUST00000054908|mouse|control|control (ssRNA)
RNA: GGGAGUUCUACAGUCCGACGAUCUCAUUUUAAUUUCAAUCUUUGUUGAAAGUACUUUGAAUGUACUCUGUUCUGGUAUUAUAGGGUGGAGCAGCCUCAGCUUCAAACUGUAGUCUUCUCCAGCAGGAAUUUUCACCAAAGCAGCAACAGAGGAUUGAGCAUCA
B8: 192206245_192214914_558_CDS_ENSG00000128641_ENST00000304164|human|control|control (ssRNA)
RNA: GGGAGUUCUACAGUCCGACGAUCGUCAAAUUCAAUAUCCAUAUAUUUGCCAAAUCUAGAGGAGUUGUCAUUCCUUACAGUUUUGGCAUUUCCAAAAGCUUCCAGGACCGGGUUGGACUGUAAAAGCUGUUCUUUAACUUGAUUCAACAGAGGAUUGAGCAUCA
B9: chr1:39494564:39494565:+_ENSG00000168653_ENST00000372967|hu_hu|hu_hu_hu_mus_True|28_28 (ssRNA)
RNA: GGGAGUUCUACAGUCCGACGAUCAUGCAUUCGCCUCAUCGUUUUGUACCGAAGCAAGCACUCUUCGAAGUCAUCGAACUCUAUCUUGCACUCCUUUUUCGCCCGGGUAUAACCGAUCCCGUGUGCACACUCUAUCCACUCUUUCAACAGAGGAUUGAGCAUCA
B10: 100648999_100653633_2881_CDS_ENSMUSG00000028532_ENSMUST00000030257|mouse|control|control (ssRNA)
RNA: GGGAGUUCUACAGUCCGACGAUCCCUCAGUGUGAAGUCGAUACCCAUCACAGCCACGGUGUGCCCGGAAGACAGCUGUGUACUGGAUGAGUGAAUUGUGUGGCUGAUUGUCACGACAUAGCCAGCUCCUCCAACAUCCAGGUACAACAGAGGAUUGAGCAUCA
B11: chr14:96997824:96997825:+_ENSG00000090060_ENST00000216277|hu_hu|FALSE|FALSE (ssRNA)
RNA: GGGAGUUCUACAGUCCGACGAUCAUUUUUUAGCAGACUGUCAUCUCGUAGAUCCAAAUCUUCAGGAAUUGUCUGCAGUGCUAAUCUUGCAAACAAAAUAUCAAUCUCUAUCCCAUCAAAACAGAGUUUAAUAACUGGUACGAACAACAGAGGAUUGAGCAUCA
B12: chr9:111175927:111175928:+_ENSMUSG00000046785_ENSMUST00000060711|mus_mus|FALSE|FALSE (ssRNA)
RNA: GGGAGUUCUACAGUCCGACGAUCUCUUACAGAAAUAGGCGCAUAUUCCGGUUUAAAGCUAAAUGGAUUUGAGAAAAGUUCUAAGUCCUUUUUAAUGAACCUGAGGUCCUUAAAAUGUCUCUCAAAAUCUUUCUGUAGGCGGGACAACAGAGGAUUGAGCAUCA
B13: chr17:57759655:57759656:+_ENSG00000141367_ENST00000269122|hu_hu|motif|central (ssRNA)
RNA: GGGAGUUCUACAGUCCGACGAUCUCGAGCCUUCUUACGGGCCAUCUGCAAGUACUUCACCAGUUCUUCCCAGUUUCCACGGGUAUUGGCAGCCUGAACAACUUCCAUGUAGGAGGAAGGAUCAUCUGCUUUGAUAUAAGAAUCCAACAGAGGAUUGAGCAUCA
B14: 152119959_152123208_800_CDS_ENSMUSG00000070348_ENSMUST00000093962|mouse|control|control (ssRNA)
RNA: GGGAGUUCUACAGUCCGACGAUCGCGGUAGCAGGAGAGGAAGUUGUUGGGGCUGCCCAGGUUCAGGCCUUGCAUCGCAGCCACCACGCUCCCAGCAGCUACCAUGGAGGGUGGGUUGGAAAUGAACUUCACAUCUGUGGCACACAACAGAGGAUUGAGCAUCA

target: T1, UNK ZnF1-3; assay: nsRBNS (natural sequence RNA bind-n-seq); RBNS binding buffer (assumed for nsRBNS): 25 mM Tris pH 7.5, 150 mM KCl, 3 mM MgCl2, 0.01% Triton X-100, 500 ug/ml BSA, 20 U/ml SUPERase-In, 4 C; UNK is unkempt and MSI1 is Musashi-1; names of the RNAs are library labels; protein concentration not given here; high values mean tight binding

Row | Binder | binding signal
1 | B1 | 0.557 enrichment R
2 | B2 | 1.09 enrichment R
3 | B3 | 2.04 enrichment R
4 | B4 | 2.39 enrichment R
5 | B5 | 0.906 enrichment R
6 | B6 | 1.02 enrichment R
7 | B7 | 0.514 enrichment R
8 | B8 | 1.08 enrichment R
9 | B9 | 0.64 enrichment R
10 | B10 | 0.776 enrichment R
11 | B11 | 0.565 enrichment R
12 | B12 | 0.957 enrichment R
13 | B13 | 0.984 enrichment R
14 | B14 | 0.907 enrichment R
